The antibiotic and cytotoxicity screens of Wong et al. (2023)
Some of the results follow.

tested on: S. aureus RN4220; assay: growth inhibition call (relative growth <= 0.2); conditions: 50 µM

Row | SMILES | growth inhibition call
1 | COc1ccc(NC(=O)Nc2ccc3c(c2)C(=O)N([C@@H](C)CO)C[C@@H](C)[C@H](CN(C)C(=O)NC2CCCCC2)OCCCC[C@@H](C)O3)cc1 | inactive
2 | C[C@H](CO)N1C[C@H](C)[C@H](CN(C)C(=O)Nc2ccc(-c3ccccc3)cc2)OCc2ccccc2-c2ccccc2C1=O | inactive
3 | COc1ccc(S(=O)(=O)Nc2cccc3c2O[C@H](CN(C)C(=O)NC(C)C)[C@@H](C)CN([C@@H](C)CO)C3=O)cc1 | inactive
4 | Fc1ccc(-c2nc3c4ccccc4c4ccccc4c3[nH]2)cc1 | inactive
5 | O=C(C[C@@H]1CC[C@@H]2[C@H](COC[C@@H](O)CN2S(=O)(=O)c2cccc(Cl)c2)O1)NCc1ccncn1 | inactive
6 | CC1(C)S[C@@H]2[C@H](NC(=O)[C@H](N)c3ccccc3)C(=O)N2[C@H]1C(=O)OCOC(=O)[C@@H]1N2C(=O)C[C@H]2S(=O)(=O)C1(C)C | active
7 | COc1ccc(S(=O)(=O)Nc2ccc3c(c2)C(=O)N([C@@H](C)CO)C[C@@H](C)[C@@H](CN(C)C(=O)Nc2ccc4c(c2)OCO4)OCCCC[C@H](C)O3)cc1 | inactive
8 | Cc1noc(C)c1S(=O)(=O)N(C)C[C@H]1OCCCC[C@@H](C)Oc2ccc(NC(=O)Nc3ccc(C(F)(F)F)cc3)cc2C(=O)N([C@@H](C)CO)C[C@H]1C | inactive
9 | C[C@H](CO)N1C[C@H](C)[C@H](CN(C)Cc2ccncc2)Oc2ccc(NC(=O)Nc3cccc4ccccc34)cc2C1=O | inactive
10 | CC1(C)C[C@H](c2nc(-c3ccccc3)cs2)CCS1 | inactive
11 | CCCCCCCCCCCCCCCC(=O)O[C@@H]1[C@@H](O)[C@@H](O)[C@@H]([C@H](NC(=O)[C@@H]2C[C@@H](CCC)CN2C)[C@H](C)Cl)O[C@@H]1SC | inactive
12 | C[C@@H]1NC(=O)[C@@]23C(=O)N[C@@H](Cc4ccccc4)[C@@H]2[C@H](C)[C@@]2(C)O[C@H]2[C@H]3/C=C/C/C=C\CNC(=O)[C@@H]2CCCN2C1=O | inactive
13 | C[C@@H]1CCCCO[C@@H](CN(C)CC2CC2)[C@H](C)CN([C@@H](C)CO)C(=O)c2cc(NS(=O)(=O)c3ccc(Cl)cc3)ccc2O1 | inactive
14 | C[C@H](O)C#Cc1ccc2c(c1)O[C@H](CN(C)C(=O)Nc1ccccc1)[C@@H](C)CN([C@H](C)CO)S2(=O)=O | inactive
15 | CO[C@@H]1CN(C)C(=O)c2ccc(NC(=O)Nc3ccc(Cl)cc3)cc2OC[C@@H](C)N(C(=O)Nc2c(C)noc2C)C[C@@H]1C | inactive
16 | C[C@@H]1CN([C@@H](C)CO)C(=O)c2cc(NC(=O)Nc3ccc(F)cc3)ccc2O[C@@H](C)CCCCO[C@H]1CN(C)Cc1ccc2c(c1)OCO2 | inactive
17 | CN1C(=O)c2cc(NS(=O)(=O)c3cccc(F)c3)ccc2OC[C@H]2O[C@H](CC(=O)NCCN3CCCCC3)CC[C@@H]21 | inactive
18 | C[C@@H]1CN([C@@H](C)CO)C(=O)Cc2cc(NC(=O)c3ccncc3)ccc2O[C@H]1CN(C)Cc1ccc(Oc2ccccc2)cc1 | inactive
19 | C[C@@H]1CN([C@H](C)CO)C(=O)c2cccc(NC(=O)Nc3ccc(C(F)(F)F)cc3)c2O[C@H]1CN(C)CC1CCCCC1 | inactive
20 | COc1ccc(CN(C)C[C@@H]2OCCCC[C@@H](C)Oc3ccc(NC(=O)C4CCCCC4)cc3C(=O)N([C@@H](C)CO)C[C@@H]2C)cc1 | inactive
21 | C[C@@H]1CN([C@@H](C)CO)S(=O)(=O)c2ccc(C#CCN(C)C)cc2O[C@@H]1CN(C)C(=O)c1ccccc1F | inactive
22 | Cc1ccc(NC(=O)CN)c(F)c1 | inactive
23 | C[C@@H]1CN([C@H](C)CO)C(=O)Cc2cc(NS(=O)(=O)c3cccs3)ccc2O[C@H]1CN(C)Cc1ccc(-c2ccccc2)cc1 | inactive
24 | Cc1noc(C)c1NC(=O)Nc1ccc2c(c1)C(=O)N([C@H](C)CO)C[C@@H](C)[C@@H](CN(C)Cc1ccncc1)OCCCC[C@@H](C)O2 | inactive
25 | C[C@H]1CN([C@@H](C)CO)C(=O)c2cc(NS(C)(=O)=O)ccc2O[C@H]1CN(C)S(C)(=O)=O | inactive
26 | Cc1ccccc1S(=O)(=O)N1C[C@H](O)COC[C@@H]2O[C@@H](CC(=O)N3CCC(Cc4ccccc4)CC3)CC[C@H]21 | inactive
27 | C[C@@H]1CN([C@H](C)CO)C(=O)c2cc(NS(=O)(=O)c3cccs3)ccc2O[C@@H](C)CCCCO[C@@H]1CN(C)Cc1ccc2c(c1)OCO2 | inactive
28 | Nc1ccc(NC(=O)CCN2CCOCC2)cc1 | inactive
29 | COC(=O)C[C@H]1CC[C@@H]2[C@H](COC[C@@H](O)CN2S(=O)(=O)c2ccccc2C)O1 | inactive
30 | C[C@@H]1CN([C@@H](C)CO)C(=O)Cc2cc(NC(=O)C3CC3)ccc2O[C@H]1CN(C)S(=O)(=O)c1ccc(F)cc1 | inactive
